Some of these densities may be calculated back from excess volumes.
Assay: xn = mol fraction of the nth substance listed
Details: 100 kPa

C[n+]1ccn(CCCC#N)c1.O=S(=O)([O-])C(F)(F)F + O=C1CCCO1
mass density [kg/m3]
Details | x1 = 0.1003 | x1 = 0.2001 | x1 = 0.3003 | x1 = 0.3999 | x1 = 0.4999 | x1 = 0.6002 | x1 = 0.7001 | x1 = 0.8002 | x1 = 0.9004 | x1 = 1
288.15 K | 1216 | 1274.7 | – | 1352.9 | 1379.8 | – | 1416.7 | 1429.9 | 1440.7 | –
293.15 K | 1211.8 | 1270.7 | 1315.3 | 1349 | 1375.6 | 1396.6 | 1412.9 | 1426.2 | – | 1445
298.15 K | 1207.8 | 1266.9 | 1311.4 | 1344.9 | 1371.9 | 1392.7 | 1409.2 | 1422.4 | – | 1440.9
303.15 K | 1203.8 | 1263 | 1307.6 | 1341.2 | – | 1388.9 | 1405.6 | – | – | 1436.7
308.15 K | 1199.5 | 1259 | 1303.6 | 1337.3 | 1364.3 | – | 1401.8 | 1415.1 | 1425.6 | –
313.15 K | 1195.5 | 1255.3 | – | 1333.6 | 1360.5 | – | – | 1411.4 | 1421.8 | 1428.4
318.15 K | 1191.3 | 1251.4 | 1296 | 1329.6 | 1356.7 | 1377.7 | 1394.5 | – | – | –
323.15 K | 1187.2 | 1247.3 | – | 1325.7 | 1352.9 | 1374 | 1390.7 | – | – | –
328.15 K | 1183 | 1243.4 | 1288.1 | 1321.9 | 1349 | 1370.2 | 1387.1 | 1400.5 | 1410.4 | 1415.9
333.15 K | 1178.9 | 1239.5 | 1284.1 | – | 1345.2 | 1366.5 | 1383.4 | 1396.8 | 1406.6 | 1411.7
338.15 K | 1174.7 | 1235.5 | – | 1314.3 | 1341.5 | 1362.8 | 1379.7 | 1393.1 | 1402.8 | –
343.15 K | 1171 | 1232 | 1276.4 | 1310.5 | 1337.8 | 1359.1 | – | 1389.6 | 1399 | 1403.4

O=C1CCCO1 + C[n+]1ccn(CCCC#N)c1.O=S(=O)([O-])C(F)(F)F
x2 = 0
Details | mass density [kg/m3]
293.15 K | 1128.7
298.15 K | 1123.9
308.15 K | 1114
313.15 K | 1109.2
318.15 K | 1104.5
328.15 K | 1094.8
333.15 K | 1090
338.15 K | 1085.2
343.15 K | 1080.6

Reference: a compilation of properties of binary mixtures (doi:10.1016/j.molliq.2022.120052)
